The supplement of paper PMC8183993
Structures can show the parent of a compound that is named as a salt. ± gives the standard deviation of the averaged measurements. Whole data set: some 3,100 compounds, median “mean cytoplasmic OPP incorporation (global translation) relative to DMSO” near 100, cut for the lowest 2% near 56. The list shows a part of the results.

Each molecule was assayed on U2OS (assay: mean cytoplasmic OPP incorporation (global translation) relative to DMSO (% of DMSO); higher = more protein synthesis). Conditions: 10 µM; 24 h.
Method: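 Primary image-based screen in U2OS cells: compounds at 10 uM for 24 h, then a 1 h o-propargyl-puromycin (OPP) pulse, click labelling, and high-throughput microscopy. Mean cytoplasmic OPP intensity and nuclei count were normalised to DMSO wells within each plate (DMSO = 100) and averaged over triplicate plates.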

Row | SMILES | mean cytoplasmic OPP incorporation
1 | O=C(O)CNC(=O)c1c(O)c2ccccc2n(Cc2ccccc2)c1=O | 100 ± 2.1
2 | c1ccc2nc(N3CCNCC3)ccc2c1 [Quipazine dimaleate] | 101
3 | c1ccc2nc(N3CCNCC3)ccc2c1 [Quipazine dimaleate salt] | 101
4 | C[N+](C)(C)CCCCCCCCCC[N+](C)(C)C [Decamethonium bromide] | 102
5 | CN1C[C@H](C(=O)N[C@]2(C)O[C@@]3(O)[C@@H]4CCCN4C(=O)[C@H](Cc4ccccc4)N3C2=O)C[C@@H]2c3cccc4[nH]cc(c34)C[C@H]21 [Dihydroergotamine tartrate] | 115
6 | CN1C[C@H](C(=O)N[C@]2(C)O[C@@]3(O)[C@@H]4CCCN4C(=O)[C@H](Cc4ccccc4)N3C2=O)C[C@@H]2c3cccc4[nH]cc(c34)C[C@H]21 [Dihydroergotamine mesylate] | 116
7 | O=C1NCN(c2ccccc2)C12CCN(CC1COc3ccccc3O1)CC2 (stereo unspecified) [Spiroxatrine] | 99.4
8 | C[N+]1(C)[C@@H]2CC[C@H]1C[C@@H](OC(=O)C(CO)c1ccccc1)C2 (stereo partly specified) [Methylatropine nitrate] | 102
9 | CC(N)Cc1c[nH]c2ccc(OCc3cccs3)cc12 (stereo unspecified) [BW 723C86 hydrochloride] | 101
10 | C1=C2CCCN[C@H]2[C@@H]2C[C@H]1[C@H]1CCCCN1C2 [Aloperine] | 102
11 | CC(C)[C@@]1(NC(=O)[C@@H]2C[C@@H]3c4cccc5[nH]cc(c45)C[C@H]3N(C)C2)O[C@@]2(O)[C@@H]3CCCN3C(=O)[C@H](Cc3ccccc3)N2C1=O [Dihydroergocristine mesylate] | 112
12 | CN1CCC(c2c[nH]c3ccc(O)cc23)CC1 | 99.8
13 | CC(=O)C1=C(O)[C@@H]2[C@H]3c4c[nH]c5cccc(c45)C[C@H]3C(C)(C)N2C1=O [Cyclopiazonic acid] | 97.2
14 | CC(=O)C1=C(O)[C@@H]2[C@H]3c4c[nH]c5cccc(c45)C[C@H]3C(C)(C)N2C1=O [Cyclopiazonic Acid] | 98.5
15 | CCN[C@@H](C)Cc1cccc(C(F)(F)F)c1 [Dexfenfluramine hydrochloride] | 77.4
16 | CC(C)[C@@]1(O)[C@@H](OC(=O)c2ccc[nH]2)[C@@]2(O)[C@@]3(C)C[C@]4(O)O[C@@]5([C@H](O)[C@@H](C)CC[C@]35O)[C@@]2(O)[C@@]14C [Ryanodine] | 96.3
17 | C[N+](C)(C)CC#CCN1CCCC1=O [Oxotremorine M] | 83.4
18 | COc1ccc(CNC(=O)/C=C/c2ccc3[nH]cc(CCN(C)C)c3c2)cc1 | 106
19 | C[CH2][Hg][S]c1ccccc1C(=O)[O-].[Na+] [Thimerosal] | 15.5
20 | C[N+]1(C)CCOC(O)(c2ccc(-c3ccc(C4(O)C[N+](C)(C)CCO4)cc3)cc2)C1 (stereo unspecified) [Hemicholinium bromide] | 99.6
21 | COc1cc2c(cc1O)C(CCc1ccc(Cl)cc1)N(C)CC2 (stereo unspecified) | 103
22 | Nc1ccncc1 [4-Aminopyridine] | 101 ± 1.2
23 | COc1ccc(-n2nc(C(F)(F)F)cc2-c2ccc(Cl)cc2)cc1 | 104

Row | SMILES | mean cytoplasmic OPP incorporation
24 | CN(C)Cc1c[nH]c2ccccc12 [Gramine] | 99.2
25 | CC(=O)N[C@H]1[C@@H](O[C@@H]2O[C@H](CC(O)[C@H]3O[C@@H](n4ccc(=O)[nH]c4=O)[C@H](O)[C@@H]3O)[C@H](O)[C@H](O)[C@H]2NC(=O)/C=C/CC(C)C)O[C@H](CO)[C@@H](N)[C@@H]1O (stereo partly specified) [Tunicamycin] | 122
26 | O=P(O)(O)Cc1ccccc1 [Benzylphosphonic acid] | 96.9
27 | C[C@]12CCC(=O)C=C1CC[C@@H]1[C@@H]2C(=O)C[C@]2(C)C(=O)CC[C@@H]12 [Adrenosterone] | 102
28 | CC1(C)CCCC(C)(C)N1[O] | 103
29 | CC(C(=O)OC1CC2CCC(C1)N2C)c1ccc(Br)cc1 (stereo unspecified) [PG-9 maleate] | 101
30 | O=C(O[C@H]1C[C@H]2CC[C@@H](C1)[N+]21CCCC1)C(O)(c1ccccc1)c1ccccc1 [Trospium chloride (Sanctura)] | 105
31 | Cc1ncc(CN2CC=C(c3ccccc3)CC2)c(N)n1 | 101
32 | Cc1[nH]c2ccc(O)cc2c1CCN [2-Methyl-5-hydroxytryptamine hydrochloride] | 104
33 | O=C1/C(=C/c2ccccc2)C[C@@]2(O)[C@H]3Cc4ccc(O)c5c4[C@@]2(CCN3CC2CC2)[C@H]1O5 [BNTX maleate] | 34.8
34 | COc1ccc(C(=O)N2CCCC2=O)cc1 [Aniracetam] | 97.5 ± 3.1
35 | O=Cc1cn(Cc2ccc(Cl)cc2)c2ccccc12 [Oncrasin 1] | 83.4
36 | NCC(CS(=O)(=O)O)c1ccc(Cl)cc1 (stereo unspecified) [Saclofen] | 104
37 | O=C(O)CCCc1ccc(N(CCCl)CCCl)cc1 [Chlorambucil] | 96.1
38 | CC[C@@H](C(N)=O)N1CCCC1=O [Levetiracetam] | 99.1
39 | O=c1[nH]c2ccccc2n1CCCN1CCC(n2c(=O)[nH]c3cc(Cl)ccc32)CC1 [Domperidone] | 110 ± 4.3
40 | O=C([O-])c1ccccc1-c1c2cc(Br)c(=O)cc-2oc2[c]([Hg+])c([O-])c(Br)cc12.[Na+].[Na+].[OH-] [Merbromin] | 101
41 | CC(=O)O[C@@]12CO[C@@H]1C[C@@H](O)[C@@]1(C)C(=O)[C@H](O)C3=C(C)[C@@H](O)C[C@@](O)([C@@H](OC(=O)c4ccccc4)[C@H]21)C3(C)C [10-DAB (10-Deacetylbaccatin)] | 113
42 | CC(C)[N+](C)(CCC(C(N)=O)(c1ccccc1)c1ccccc1)C(C)C [Isopropamide iodide] | 106
43 | C#C[C@]1(O)CC[C@H]2[C@@H]3CCC4=CC(=O)CC[C@]4(C)[C@H]3CC[C@@]21C [Ethisterone] | 105 ± 8.1
44 | CC(C)CC(N(C)C)C1(c2ccc(Cl)cc2)CCC1 (stereo unspecified) [Sibutramine HCl] | 95.1
45 | C=CCN1CC[C@]23c4c5ccc(O)c4O[C@H]2/C(=N/NC(=O)c2ccccc2)CC[C@@]3(O)[C@H]1C5 [Naloxone benzoylhydrazone] | 103
46 | N[C@@H](Cn1oc(=O)[nH]c1=O)C(=O)O [L-Quisqualic acid] | 98.3
